The campaign covered roughly 410,000 compounds. About 260 (0.063%) were called active. Inconclusive results, whose numbers are uncertain, are shown with a selection of clear calls. The call rests on the fitted dose curve; in most records, active means well fitted activation curve with a large enough effect; inconclusive means small, poorly fitted or top-dose-only effect; inactive means no such curve, though single readings can be large or run the other way. Potencies of inconclusive entries are left out as doubtful fits.
assay: qHTS for compounds that reverse cellular toxicity of Amyloid beta (A-beta) peptide in yeast: Primary Screen; settings: yeast expressing A-beta42, growth rescue, OD600, 48 h; growth rescue: at 46.1 µM (top of the series), 0% DMSO, 100% iron-clioquinol control; further: nearly all actives have a fitted effect of over 55% in size
Outline: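 Yeast A-beta toxicity model in growth medium with pinned compounds, 48 h at 30 C; growth read as absorbance at 600 nm. Normalized to FeCl3/clioquinol equimolar mix (positive) and DMSO (negative).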
Potency means the concentration at half of the fitted maximal effect; tags describe the fitted curve by direction and shape.

Row | Compound | Potency | growth rescue
1 | CCOC(=O)c1cc(NC(=O)N(C)C2CCCCC2)c(C)nc1C | inconclusive [activator, single point] | –
2 | O=C(/C=C/c1cccs1)NC(=S)NNC(=O)Cc1cccs1 | inconclusive [activator, full curve, poor fit] | –
3 | Cc1ccc(NC(=S)NC(=O)c2cccs2)cc1F | inconclusive [activator, full curve, poor fit] | –
4 | c1ccc(-c2csc(Nc3ccccn3)n2)cc1 | inconclusive [activator, partial curve] | –
5 | CSc1ccc(-c2nc3ncccn3c2Nc2ccc(C)c(C)c2)cc1 | – | inactive: -13.7%
6 | COc1ccc(C(=O)NC(=S)N2CCN(c3ccc([N+](=O)[O-])cc3)CC2)cc1 | inconclusive [activator, partial curve, poor fit] | –
7 | CC1(CCC#N)N=C(SCCC#N)N(c2ccccc2)C1=O (stereo not given) | inconclusive [activator, single point] | –
8 | S=C(NCc1ccccn1)Nc1cccc(Cl)c1 | inconclusive [activator, partial curve] | –
9 | Clc1ccc(CN=C(Nc2ccccc2)NC2CCCCC2)cc1 | inconclusive [activator, partial curve] | –
10 | Fc1cccc(Cl)c1CSc1ccc(-c2cccnc2)nn1 | inconclusive [activator, full curve, poor fit] | –
11 | Cc1cc(C)c(Cn2c(CCNC(=O)c3ccco3)nc3ccccc32)c(C)c1 | – | inactive: 0.552%
12 | O=C(O)/C=C/C(=O)Nc1cc(F)ccc1F | inconclusive [activator, partial curve, poor fit] | –
13 | CCOc1ccccc1NC(=O)c1ccc2ccccc2c1 | – | inactive: -13.9%
14 | CN1CCN(S(=O)(=O)c2cccc(C(=O)N(Cc3nnc(-c4ccc(Cl)cc4)o3)C3CC3)c2)CC1 | – | inactive: -0.177%
15 | COC(=O)c1ccc(COc2ccc(F)cc2)o1 | – | inactive: -3.04%
16 | CCc1nnc(NC(=O)c2ccc(S(=O)(=O)N(C)Cc3ccccc3)cc2)o1 | inconclusive [activator, partial curve, poor fit] | –
17 | S=C(N/N=C/c1ccc(Cl)cc1)N1CCOCC1 | inconclusive [activator, single point] | –
18 | CC1(C(=O)NC(=S)NNC(=O)c2ccncc2)CCCCC1 | inconclusive [activator, full curve, poor fit] | –
19 | CCCCC1C(C#N)=C(C)NC2=C1C(=O)CC(C)(C)C2 (stereo not given) | – | inactive: -0.629%
20 | Cc1ccc(C(C)C)c(OCCNC(=O)c2cncc(Br)c2)c1 | inconclusive [activator, single point] | –
